Laboratory results as given in PubChem BioAssay AID1345082 (National Center for Advancing Translational Sciences (NCATS), 2018).
Among all 94,000 compounds or so, about 4,000 (4.3%) were called active. The shares of active, inactive and inconclusive entries below differ from those in the screen. Calls follow the shape of the dose curve; as a rule, active = well fitted inhibition curve with a large enough effect; inconclusive = small, poorly fitted or top-dose-only effect; inactive = no such curve, though single readings can be large or run the other way. Potencies beside an inconclusive call are fits to weak or partial responses and may not hold up.

assay: Cytotoxic Profiling in NIH 3T3 Cell Line of Diverse Libraries Using Quantitative High-Throughput Screening; details: NIH 3T3 viability, CellTiter-Glo ATP luminescence, 48-72 h; series mostly up to 96.7 µM; also: nearly all actives have a fitted effect of over 55% in size
Outline: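 Cytotoxicity was measured by CellTiter-Glo ATP luminescence after 48 or 72 h compound exposure at 37 °C. Mouse NIH 3T3 fibroblasts were seeded at 400 cells/well and dosed by 23 nL pin transfer.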
Potency is read from the fitted curve at half-maximal effect; tags tell the direction and shape of the fitted curve.

SMILES | Potency
COCC1CN(C2CCC2)CC12CCN(C(=O)c1cccc(C#N)c1)CC2 (stereo not drawn) | inconclusive: 44.7 µM [inhibitor, partial curve, poor fit]
CN1CC(=O)N(c2cccnc2)Cc2c1ncnc2N1CCC(c2ccccc2)CC1 | inconclusive: 50.1 µM [inhibitor, partial curve, poor fit]
C[S+](=O)([O-])N1CCCC(C(=O)N2CCC3(CC2)CC(=O)Nc2ccccc2O3)C1 (stereo not drawn) | inactive
CC1(CCCCc2ccccc2)COc2ccc(C(=O)N3CCOCC3)cc2N1 (stereo not drawn) | inconclusive: 56.2 µM [inhibitor, partial curve, poor fit]
Cc1ccc(-c2cc3c(=O)n(CCNC(=O)c4ccc5cc[nH]c5c4)ccn3n2)cc1C | inconclusive: 39.8 µM [inhibitor, partial curve, poor fit]
O=C(NCc1nnc2n1C(C(=O)NC1CC1)CC2)c1ccncc1 (stereo not drawn) | inactive
O=C(NC1C[C@H]2CC[C@@H](C1)N2S(=O)(=O)c1ccc(Cl)s1)c1ccncc1 (stereo partly drawn) | inconclusive: 44.7 µM [inhibitor, partial curve, poor fit]
O=C(Nc1cccc(Cl)c1)C1CN(c2ccnc3ccnn23)C1 | inconclusive: 17.8 µM [inhibitor, full curve]
CCn1cnnc1CC1CCCN(S(=O)(=O)c2ccc(OC)cc2)C1 (stereo not drawn) | inactive
CNC(=O)c1cc(C)nc2onc(C3CCCN3C(=O)OC)c12 (stereo not drawn) | inactive
Cc1cccc(NC(=O)N2CC(Oc3cccc(-c4nc(C)no4)c3)C2)c1 | inconclusive: 50.1 µM [inhibitor, partial curve, poor fit]
CC(C)N1CC[C@H](CO)[C@H](NC(=O)C2CC2)C1 | inactive
COc1ccccc1-c1cccc(CN2CCCC(C(=O)NCc3ccc4c(c3)OCO4)C2)c1 (stereo not drawn) | inconclusive: 44.7 µM [inhibitor, partial curve, poor fit]
Cn1nc(C(=O)N2CCC(c3n[nH]c(=O)n3-c3ccccc3)CC2)c2ccccc21 | inconclusive: 50.1 µM [inhibitor, partial curve, poor fit]
CCc1ccc([S+](=O)([O-])c2nnn3c2nc(NC2CC2)c2ccccc23)cc1 | inconclusive: 79.4 µM [inhibitor, single point]
O=C1NC2(Cc3ccccc31)CN(Cc1ccc(F)cc1)C2 | inconclusive: 44.7 µM [inhibitor, partial curve, poor fit]
COc1ccccc1-c1cccc(C(=O)N2CCN(C(=O)C3CCCC3)CC2)c1 | inconclusive: 44.7 µM [inhibitor, partial curve, poor fit]
COCCNC(=O)c1cc(-c2ccccc2OC(F)(F)F)cc2ncn(C)c12 | inconclusive: 89.1 µM [inhibitor, partial curve]
O=Cc1cccc(-c2ccc(OC(F)(F)F)cc2)c1 | inconclusive: 89.1 µM [inhibitor, partial curve, poor fit]
CC(C)CCN1CCc2c(n(Cc3cccnc3)n(CCc3ccccc3)c2=O)C1 | inconclusive: 35.5 µM [inhibitor, single point]
c1ccc(Nc2cnc3ccc(N4CCOCC4)nn23)cc1 | inconclusive: 44.7 µM [inhibitor, partial curve, poor fit]
O=C(c1ccc(Cl)cc1)N1CCC2(C1)C(=O)Nc1ccccc12 (stereo not drawn) | inconclusive: 50.1 µM [inhibitor, partial curve, poor fit]

SMILES | Potency
Cc1ccc(C(=O)NC2CCCN(c3cc(-c4ccccc4)[nH]n3)C2)cc1 (stereo not drawn) | inconclusive: 44.7 µM [inhibitor, partial curve, poor fit]
Cc1ccc(NC(=O)c2nc3sccn3c2-c2cccnc2)cc1 | inconclusive: 56.2 µM [inhibitor, partial curve, poor fit]
Cc1ccc(C(=O)N2CCc3cn(C)c4cccc(c34)C2)cc1 | inconclusive: 44.7 µM [inhibitor, partial curve]
O=C(NC1CCCc2c1[nH]c1ccc(F)cc21)c1n[nH]c2c1CCCC2 (stereo not drawn) | inconclusive: 22.4 µM [inhibitor, partial curve]
O=C(C[C@@H]1O[C@H](CNC(=O)C2CC2)[C@@H](O)[C@H]1O)Nc1ccccc1 | inactive
COc1ccc(N2CC(c3noc(-c4ccc(N(C)C)cc4)n3)CC2=O)cc1 (stereo not drawn) | inactive
CCC(=O)N1CCC([C@H]2[C@@H](OC)C(=O)N2C(C)C)CC1 | inactive
Cn1nc(-c2nncn2CC2CC2)c2c1CCN(C(=O)c1[nH]nc3c1COc1ccccc1-3)C2 | inconclusive: 50.1 µM [inhibitor, partial curve, poor fit]
Cc1ccc(CNC(=O)c2cc3c(s2)CCN(C(=O)c2ccccc2)C3)cc1 | inconclusive: 50.1 µM [inhibitor, partial curve, poor fit]
O=C(NCC(F)F)C1CCN(c2nccc(Nc3ccccc3F)n2)CC1 | inactive
CCNC(=O)N1CCc2nc(OCCOC)ccc2C1 | inactive
CCc1cccc(NC(=O)CN2C(=O)NC(c3ccccc3Cl)C3=C2COC3=O)c1 (stereo not drawn) | inconclusive: 70.8 µM [inhibitor, single point]
COc1ccc(-c2noc(-c3nc(-c4ccccn4)no3)n2)cc1 | inactive
CC(=O)N1CCCN(CC[C@H]2CN(C(=O)c3ccc(C(F)(F)F)cc3)CC[C@H]2CC(=O)O)CC1 | inactive
O=C(CN1C(=O)C(c2ccccc2)=NC12CCCC2)NCc1ccccc1 | inactive
CN(C)c1ccc(C(=O)N2CCC3(CC2)N=C(c2ccc(Br)cc2)NO3)cc1 | inactive
O=C(NCc1cccs1)C1CCCN1C(=O)c1cccc(-c2ccccn2)c1 (stereo not drawn) | inactive
Cc1ccc(C(=O)N2CCCN(S(C)(=O)=O)c3ccccc32)cc1C | inactive
COc1ccc(-c2cn3c(n2)CO[C@@H](CNCc2ccc(F)c(F)c2)C3)cc1 | inconclusive: 100 µM [inhibitor, partial curve]
Cc1ccc(-n2cccc2CC(=O)NC2CCCC2)cc1 | inactive
CC(=O)N1CCN(C(=O)C2CCc3nnc(C4CCN(C(=O)NC(C)(C)C)CC4)n32)CC1 (stereo not drawn) | inactive
